Test results published in PubChem BioAssay AID1508642 (National Center for Advancing Translational Sciences (NCATS), 2021).
Hit rate of the full screen: of about 43,000 compounds, about 200 (0.47%) were called active. Inconclusive results (about 12%) are left out. Calls follow the shape of the dose curve; as a rule, active = well fitted cell-killing curve with a large enough effect; inconclusive = small, poorly fitted or top-dose-only effect, or effect the other way; inactive = flat fitted curve, though single readings scatter. This is one part of the list.

experiment: Cell viability qHTS assay in S16 Pmp22-F2sN cells; details: S16 Pmp22-F2sN Schwann cells (luciferase reporters placed in the Pmp22 gene) viability, CellTiter-Glo, 24 h; series mostly up to 57.5 µM; activity change, negative = cytotoxicity: at the top concentration; also: nearly all actives have a fitted effect of over 65% in size
In short: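 Seed 500-1,000 S16 Pmp22-F2sN cells per well in phenol-red-free DMEM with 10% heat-inactivated FBS; pin-add 23 nL compound; incubate 24 h at 37C; add CellTiter-Glo, wait 15 min protected from light; read luminescence.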
% is scaled to controls: 0 for no effect and ±100 for the full control effect.

SMILES	activity change, negative = cytotoxicity
Cc1c(Cl)cccc1-n1ncc(C(=O)N2CCN(c3ncccn3)CC2)c1C1CCN(C(=O)OC(C)(C)C)CC1	inactive: -18.6%
COc1cccc(NC(=O)CCC(=O)N2Cc3ccccc3Oc3ncccc32)c1	inactive: 8.38%
CCCOc1ccc(CNC(=O)CCCn2ncn3c(cc4sc(CC)cc43)c2=O)cc1	inactive: -11.5%
Cc1ccc(-n2cc(-c3ccccc3)c3c(N4CCCCC4)ncnc32)cc1	inactive: -1.62%
CC(C)OC(=O)c1cccc(NC(=O)Cn2nnc3sc4c(c3c2=O)CCCC4)c1	inactive: 1.38%
Cc1cccc(Nc2nnc(-c3ccc(C)c(S(=O)(=O)N4CCCCC4)c3)c3ccccc23)c1	inactive: -3.36%
Cc1ccc(CNC(=O)CSc2nc3ccsc3c(=O)n2Cc2ccccc2F)cc1	inactive: -8.34%
COc1ccc(C)cc1NC(=O)C(=O)NCC(c1cccnc1)N1CCc2ccccc21 (stereo unspecified)	inactive: -14%
COc1ccc(NC(=O)CSc2nccn2Cc2ccc3c(c2)OCO3)cc1	inactive: 0.404%
O=C1CC(c2ccccc2)Sc2ccccc2N1Cc1ccc(F)cc1 (stereo unspecified)	inactive: -0.862%
Cc1ccc(-n2c3c(cc(C(=O)Nc4ccccc4C(N)=O)c2=O)C(=O)CC(C)(C)C3)cc1	inactive: -0.0224%
CN(C)CCNC(=O)CN1C(=O)COc2ccc(S(=O)(=O)N3CCCC3)cc21	inactive: 3.13%
CCOc1ccccc1NC(=O)c1c(NC(=O)COc2ccccc2)sc2c1CCCC2	inactive: 7.55%
COc1ccc(C2=Nc3ccccc3NC(c3cccs3)=N2)cc1	inactive: -7.33%
COc1ccccc1NC(=O)Cn1c(SCC(=O)Nc2ccc(F)cc2)nc2ccccc21	inactive: -0.3%
Cc1nc2ccn(Cc3ccccc3)c(=O)c2cc1C(=O)N1CCN(c2ccc(F)cc2)CC1	inactive: 11.5%
COc1cccc(CCNC(=O)c2c(O)nc3c(C)cccn3c2=O)c1	inactive: 11.8%
CC(Sc1nnc2ccc3ccccc3n12)C(=O)Nc1ccc(Cl)cc1 (stereo unspecified)	inactive: 19.2%
COCCc1nn2c(=O)cc(COC(=O)C(c3ccccc3)c3ccccc3)nc2s1	inactive: -9.34%
CCOC(=O)c1cnc2cc(-c3ccc(OCC)cc3)nn2c1-c1ccccc1	inactive: -1.63%
Cc1cc(NC(=O)n2ncc3c(C)cccc32)ccc1Br	inactive: 13.2%
CCCN1CCN(CCCNC(=O)c2ccc3nc(Cc4ccccc4)oc3c2)CC1	inactive: 1.04%
CCCCN1CC(c2nc3ccccc3n2CCCCOc2cccc(C)c2C)CC1=O (stereo unspecified)	inactive: -19%
CCOc1ccc(CN(CCc2ccc3c(c2)OCO3)Cc2cc(OC)c(OC)cc2OC)cc1	inactive: -23.1%

SMILES	activity change, negative = cytotoxicity
COc1ccc2c(CNCCc3cccs3)c(C(=O)O)n(Cc3ccc(F)cc3Cl)c2c1	inactive: -19.3%
CCC(Sc1nnc2c3ccccc3n(CC)c2n1)C(=O)Nc1nnc(C(C)C)s1 (stereo unspecified)	inactive: 2.72%
COc1ccc(-c2cc3nc(C4CCN(C(=O)OC(C)(C)C)CC4)c(C(=O)Nc4cc(C)cc(C)c4)cn3n2)cc1	inactive: -2.27%
Cn1c(=O)cc(SCC(=O)N2CCN(c3ccccc3F)CC2)c2ccccc21	inactive: -16.4%
Cc1cc(C)cc(NC(=O)CCCc2nc(-c3ccco3)no2)c1	inactive: -4.83%
Cc1cc(-n2c(C)nc3ccccc3c2=O)ccc1NC(=O)c1ccccc1[N+](=O)[O-]	inactive: 4.15%
COc1ccc(C)cc1NC(=O)c1cc(S(=O)(=O)N2CCCCC2)c[nH]1	inactive: -0.109%
COc1ccc(OC)c(NC(=O)[C@H](CSCc2ccccc2)N2Cc3ccccc3C2=O)c1	inactive: -6.95%
CCOC(=O)c1cc(OC(=O)c2ccccc2Cl)n(-c2ccccc2)n1	inactive: 1.8%
Cc1nn2c(=O)cc(COC(=O)c3ccccc3NC(=O)COc3ccccc3C)nc2s1	inactive: 3.9%
Cc1ccc(SCc2nc(-c3ccc(C(=O)NCCc4ccc(Cl)cc4)cc3)oc2C)cc1	inactive: 4.07%
Cc1ccccc1NC(=O)Cn1c(=O)n(Cc2ccccc2)c(=O)c2c(C)c(C)sc21	inactive: 25.5%
Cc1ccc(CNC(=O)Cn2c(=O)n(-c3ccc(C)cc3)c(=O)c3c2c2cc(C)ccc2n3C)cc1	inactive: 12.5%
COC(=O)c1cc2occc2n1CC(=O)Nc1ccc(N(C)C)cc1	inactive: 7.48%
COC(=O)c1c(N)n(-c2ccc(OC)c(OC)c2)c2nc3ccccc3nc12	inactive: 1.04%
N#Cc1nc(-c2ccc(COc3ccccc3)o2)oc1N1CCCCC1	inactive: -0.567%
Cc1ccc(CNC(=O)C(=O)NCC(c2ccco2)S(=O)(=O)c2ccccc2)cc1 (stereo unspecified)	inactive: 11.8%
CCSc1nc(-c2ccccc2F)nc2c1Cc1c(CO)cnc(C)c1O2	inactive: -2.28%
COc1ccc(CCNC(=O)C(C)n2c(=O)cc(-c3ccccc3)c3c(C)nn(C)c32)cc1OC (stereo unspecified)	inactive: 2.67%
CCC(=O)N1CCc2cc(CNC(=O)c3ccc(F)cc3)ccc21	inactive: 23.8%
COc1cccc(N2CCN(C(=O)c3nn(C)c4c3CSc3ccc(C)cc3-4)CC2)c1	inactive: 12%
Cc1ccc(-c2nc3sccn3c2Nc2ccc(C)c(C)c2)cc1	inactive: -22.5%
CC1CCN(c2nc3ccc(C(=O)N4CCN(c5ccccc5)CC4)cc3s2)CC1	inactive: -1.67%
CCOc1ccc(N(CC)C(=O)c2cc3c(s2)-c2ccccc2OC3)cc1	inactive: -15.8%

SMILES	activity change, negative = cytotoxicity
CCN(C(=O)c1cn(CC)c(=O)c2cc(OC)c(OC)cc12)c1ccccc1F	inactive: 5.74%
Cc1cccc(NC(=O)C(=O)NCCc2csc(-c3ccc(F)cc3)n2)c1C	inactive: 10.4%
Cc1cc(C)c2c(=O)cc(CSc3n[nH]c(C)n3)[nH]c2c1	inactive: 14.5%
COc1ccc(CCC(=O)NC2CC(=O)N(c3ccc(OC)cc3)C2)cc1 (stereo unspecified)	inactive: 3.6%
CCC(C(=O)Nc1cc(F)ccc1F)n1nc(C)c2c(C)n(-c3ccc(C)cc3)nc2c1=O (stereo unspecified)	inactive: -17%
COc1ccc(NC(=O)CN2C(=O)c3cccnc3Sc3ccccc32)cc1OC	inactive: -17.1%
CCOC(=O)c1ccc(NC(=O)C2=C(C)Nc3nc(CCCO)nn3C2c2ccc(OC)cc2)cc1 (stereo unspecified)	inactive: -4.03%
Cc1cccc(N2CCN(C(=O)c3ccc(Nc4nc5ccccc5n5nnnc45)cc3)CC2)c1C	inactive: -27%
CC1=C(C(=O)Nc2cc(Cl)ccc2C)C(c2cccs2)n2ncnc2N1 (stereo unspecified)	inactive: 11.3%
O=C(CSCc1ccc(F)cc1)N1CCc2c([nH]c3ccccc23)C1c1ccc(Cl)cc1 (stereo unspecified)	inactive: -8.31%
COc1cc(C(=O)Nc2ccccc2-c2nc(-c3ccc(C)cc3)no2)cc(OC)c1OC	inactive: 16.2%
CC(=O)c1c(C)oc2c1cc(NS(=O)(=O)c1ccc(Cl)c(C)c1)c1ccccc12	inactive: -16.1%
COc1ccc(OC)c(NC(=O)Cn2c(=O)cc(-c3ccccc3)c3c(C)nn(C)c32)c1	inactive: 1.84%
COc1cc(NC(=O)CCCOc2cc(=O)n(C)c3ccccc23)cc(OC)c1OC	inactive: -14.6%
CCOC(=O)CNC(=O)N1CCN(c2nnc(C)c3c(C)n(-c4ccc(Cl)cc4)nc23)CC1	inactive: 0.471%
Cc1cccc(N2CCN(C(=O)CS(=O)(=O)Cc3nc(-c4ccccc4C)oc3C)CC2C)c1 (stereo unspecified)	inactive: -1.2%
CCc1ccc(S(=O)(=O)c2nnn3c2nc(Nc2ccc(NC(C)=O)cc2)c2sccc23)cc1	inactive: 11.3%
Cc1nc(-c2ccc(C)c(N3CCN(C(=O)Nc4cccc(Cl)c4C)CC3)c2)no1	inactive: -0.805%
CCOC(=O)C1CCCN(Cc2cn3c(-c4cccc(Br)c4)nnc3s2)C1 (stereo unspecified)	inactive: 1.66%
Cc1ccc(-n2c(Cc3ccccc3)nnc2SCc2nc(-c3cccs3)no2)cc1C	inactive: -24.1%
O=C(Nc1ccc(Cl)cc1)C(NS(=O)(=O)c1cccs1)c1ccccc1 (stereo unspecified)	inactive: -2.26%
Cc1cccc(OCC(=O)Nc2nnc(S(=O)(=O)N3CCc4ccccc43)s2)c1	inactive: 1.81%
Cc1cc(NC(=O)CCNS(=O)(=O)c2cccc3nsnc23)ccc1Br	inactive: -2.45%
Cc1ccc(NC(=O)c2ccccc2Br)c(C(=O)c2ccccc2)c1	inactive: -12.9%

SMILES	activity change, negative = cytotoxicity
COc1ccc(CNC(=O)c2ccc3nc(-c4ccc(F)cc4)c(-c4ccc(F)cc4)nc3c2)cc1	inactive: 9.7%
Cc1nnc(NC(=O)c2ccccc2)s1	inactive: -12.3%
CCC1(C)Cc2c(sc3nc(SC)n(-c4ccc(C)cc4)c(=O)c23)CO1 (stereo unspecified)	inactive: -0.25%
O=C(Nc1ccc(-c2nc3cc(Cl)ccc3o2)cc1)c1cc2ccccc2o1	inactive: 7%
COc1ccc(Cn2c(SCc3ccc(C(=O)NC(C)c4ccccc4)cc3)nc3cccnc32)cc1 (stereo unspecified)	inactive: 3.73%
O=C(NCc1ccccc1Cl)c1ccc2oc(=O)n(Cc3ccccc3)c2c1	inactive: -1.85%
Cc1cc(C)n(-c2nc3ccccc3nc2N2CCN(c3cccc(C(F)(F)F)c3)CC2)n1	inactive: -2.84%
CCOc1cccc2sc(N(Cc3cccnc3)C(=O)c3ccc(C#N)cc3)nc12	inactive: -7.36%
COc1ccc(NC(=O)CC2NCCNC2=O)c(OC)c1 (stereo unspecified)	inactive: 3.02%
Cc1c(CC(=O)NCc2ccc(F)cc2)c(=O)oc2cc(O)c(Cl)cc12	inactive: 0.155%
CCOC(=O)c1c(NC(=O)C2c3ccccc3Oc3ccccc32)sc(C)c1C	inactive: 0.391%
Cc1ccc(-n2c(SCc3ccccc3)nc3c([nH]c4ccccc43)c2=O)cc1	inactive: 1.4%
COc1ccccc1C(=O)Oc1ccc(C(c2c(C)[nH][nH]c2=O)c2c(C)[nH][nH]c2=O)cc1	inactive: 1.05%
COC(=O)c1cc(-c2ccc(C)cc2)c2c(=O)n(C)c(=O)n(C)c2n1	inactive: -1.61%
Cc1nc(-c2ccc(F)cc2)sc1CCNC(=O)C(=O)Nc1ccc2c(c1)OCCO2	inactive: 8.58%
O=C(CCCn1c(=O)c2cccn2c2ccccc21)NCCc1ccc(Cl)cc1	inactive: -21.2%
CSc1nn(Cc2ccc(C)cc2)c(N)c1S(=O)(=O)c1ccccc1	inactive: -7.64%
COc1cccc(CNC(=O)c2cc(S(=O)(=O)N3CCCCC3)c[nH]2)c1	inactive: 5.58%
COc1ccc(CC(=O)Nc2ccc(-c3nc4ccccc4s3)c(C)c2)cc1OC	inactive: -16.2%
COc1ccc2oc(=O)c(C(=O)N3CCN(c4ccc(C)cc4)CC3)cc2c1	inactive: 8.05%
Cc1csc2nc(COC(=O)c3ccccc3NC(=O)c3ccc(C(C)(C)C)cc3)cc(=O)n12	inactive: 3.04%
CC1=C(C(=O)Nc2ccccc2)C(c2ccccc2)n2nc(-c3ccco3)nc2N1 (stereo unspecified)	inactive: 3.09%
COc1ccc(NC(=O)Cn2c(SCc3cccc(Cl)c3)nc3ccncc32)c(OC)c1OC	inactive: 4.27%
COc1cc(Cl)c(C)cc1NC(=O)CCc1nc2cccnc2n1-c1ccccc1	inactive: 8.13%
